In all, about 33,000 sequences were measured (“E-score (-0.5 to 0.5)”: median about -0.012, highest 2% from about 0.29 on). The list shows a part of the results.
Target: T1, Ybr033w (UniProt P38073)
T1 sequence: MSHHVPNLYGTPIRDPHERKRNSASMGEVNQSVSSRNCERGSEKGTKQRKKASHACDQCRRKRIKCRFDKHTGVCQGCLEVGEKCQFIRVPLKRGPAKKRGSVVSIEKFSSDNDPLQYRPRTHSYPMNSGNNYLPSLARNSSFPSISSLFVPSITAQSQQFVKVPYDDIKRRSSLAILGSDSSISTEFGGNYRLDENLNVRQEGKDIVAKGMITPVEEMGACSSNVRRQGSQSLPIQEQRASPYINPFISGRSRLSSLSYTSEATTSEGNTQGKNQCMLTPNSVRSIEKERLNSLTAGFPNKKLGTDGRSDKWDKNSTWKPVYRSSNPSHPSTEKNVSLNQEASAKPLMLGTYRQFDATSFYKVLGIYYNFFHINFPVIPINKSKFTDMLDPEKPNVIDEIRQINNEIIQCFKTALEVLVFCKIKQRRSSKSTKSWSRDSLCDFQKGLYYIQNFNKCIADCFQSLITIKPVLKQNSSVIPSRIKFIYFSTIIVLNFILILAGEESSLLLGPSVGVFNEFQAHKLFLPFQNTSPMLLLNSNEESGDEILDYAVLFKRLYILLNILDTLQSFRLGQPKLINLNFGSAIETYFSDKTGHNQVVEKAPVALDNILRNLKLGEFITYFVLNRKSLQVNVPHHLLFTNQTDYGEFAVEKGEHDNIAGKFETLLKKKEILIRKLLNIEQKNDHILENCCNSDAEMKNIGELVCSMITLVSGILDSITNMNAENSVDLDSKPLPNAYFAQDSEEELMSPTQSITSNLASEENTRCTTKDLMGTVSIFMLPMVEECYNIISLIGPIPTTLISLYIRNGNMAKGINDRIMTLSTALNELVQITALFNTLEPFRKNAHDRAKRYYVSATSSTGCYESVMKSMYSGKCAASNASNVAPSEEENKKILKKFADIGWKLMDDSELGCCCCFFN
Test: PBM E-score (8-mer binding enrichment) (E-score (-0.5 to 0.5)); higher = stronger / more preferred TF binding; most listed sequences are background and not binding sites
Details: protein concentration: 200 nM; construct: GST-full length
Summary of the method: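 Using PURExpress in vitro transcription/translation, GST-tagged yeast transcription factors were made in full-length or DNA-binding-domain form. These were applied at about 100-200 nM to double-stranded universal all-10-mer Agilent arrays, and bound protein was detected with fluorescent anti-GST. Scans were normalised with masliner before the Universal PBM Analysis Suite assigned E-scores to ungapped eight-base words pooled with their reverse complements.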

Row | Sequence | PBM E-score
1 | TAACATGA | 0.0898
2 | GAGGGAGA | -0.213
3 | CGCCCTGC | -0.184
4 | AAAACCTC | 0.181
5 | CAGTGCTC | -0.00589
6 | ATTAAGCA | -0.0125
7 | GAGGATCA | 0.0676
8 | CGAGCAGC | -0.0631
9 | TGCGGCCA | -0.124
10 | AATTTAGT | 0.241
11 | AGATGGAA | 0.112
12 | GTGGTTGA | 0.0246
13 | AAGGCGTA | -0.0227
14 | CGGTTCGC | -0.0495
15 | CCAAATGG | 0.0448
16 | ATAGGCTG | -0.063
17 | ACTATGTC | 0.0491
18 | AGCCTTGC | -0.133
19 | AGTCAGGG | -0.304
20 | ACGTAGGG | -0.243
21 | GCTTCGAC | -0.199
22 | CGTAGAAA | 0.0466
23 | GAAACTTA | 0.332
24 | CAGTCGCC | -0.151
25 | TGAACCCA | 0.117

Row | Sequence | PBM E-score
26 | AGATTCAT | 0.101
27 | AGGAAGCA | -0.179
28 | AGTTTTTA | 0.181
29 | CAAGTGGA | -0.0181
30 | CCTGAGGA | -0.0313
31 | CGTACTAC | 0.00519
32 | CACAACAA | 0.174
33 | AATCTGGT | 0.0844
34 | AGCCGGAT | 0.133
35 | AAACTTTA | 0.219
36 | AAGTATTA | 0.146
37 | GCTCAGCA | -0.0236
38 | TAGTCCGA | -0.0149
39 | GACCAAAC | -0.17
40 | ACACCCGC | 0.0959
41 | AATAGGTG | 0.0376
42 | ACCCCTAC | -0.242
43 | AAAAACAT | 0.21
44 | AGCCCTAT | -0.163
45 | CTTACACC | -0.2
46 | CTTGGACA | 0.0117
47 | ATCGTCCG | -0.0138
48 | AAATTCAT | 0.227
49 | CACCCGTA | -0.0339
50 | ACTTCATG | -0.118

Row | Sequence | PBM E-score
51 | CCGCGAAC | -0.0246
52 | AACAGTTA | 0.204
53 | AGAGGAGC | -0.168
54 | AATCCATG | 0.115
55 | ACGCGCCG | -0.0849
56 | GAGGGAAA | 0.0515
57 | GCTACGCC | -0.239
58 | CTCCCATA | -0.157
59 | ATCTCTTG | -0.037
60 | AGGGCACT | -0.316
61 | CCGTAACC | 0.107
62 | ATTGCAGA | 0.151
63 | CACCCTGG | -0.285
64 | ACAGCCAC | -0.0773
65 | CCTCATGC | -0.253
66 | CCCCTTTA | -0.223
67 | CGGTCGTC | -0.138
68 | ACCATGGT | -0.184
69 | ACTCTGAG | -0.214
70 | GAGAACCA | 0.00903
71 | CACGGGAA | -0.128
72 | ATACTCTC | 0.158
73 | CCCCCACC | -0.419
74 | CCCAGACG | -0.308
75 | CCTAGGTA | -0.0225

Row | Sequence | PBM E-score
76 | AGGCTCAG | -0.119
77 | GGCGGAAA | 0.0617
78 | ATACCCCC | -0.254
79 | CGGGAAAC | 0.0713
80 | CTACACTC | -0.139
81 | TGCTACCA | -0.0533
82 | TAGCACGA | 0.172
83 | ACCTCTTG | -0.143
84 | AACCCGAA | -0.0468
85 | ATGGCTGA | -0.0728
86 | CGCCGGAC | -0.243
87 | CAATCCTG | 0.0991
88 | CACTCCGG | -0.00518
89 | AATCGAAG | 0.108
90 | ATTTGCGG | 0.131
91 | CCGATGCC | -0.114
92 | TAGCGAGA | 0.104
93 | AACCCTCT | -0.12
94 | AGCCTAGC | -0.0427
95 | CCGCGTCA | -0.239
96 | AGACCCGA | -0.0272
97 | ATTAGTAG | 0.158
98 | GACTATCC | -0.107
99 | ACACCTCT | -0.0836
100 | CAGAGACA | -0.169

Row | Sequence | PBM E-score
101 | CTCCCATC | -0.0653
102 | AACAACTT | 0.291
103 | GCCACGGA | -0.179
104 | ACACTTTG | 0.0993
105 | GAATTAGA | 0.0828
106 | CGGCCTCA | -0.00758
107 | ACAACTTC | 0.237
108 | AGCTCGTC | -0.251
109 | TTATGAAA | 0.228
110 | GCTGCAAA | 0.158
111 | CCGCAAAA | 0.162
112 | ATTAGACC | -0.0843
113 | CCGATTCA | -0.0631
114 | CGGGCCCA | -0.29
115 | AGGACCCC | -0.285
116 | GTGGGAAA | 0.201
117 | CAACGACC | -0.122
118 | CTCACCCA | -0.0925
119 | CCGGGTAC | -0.241
120 | CGTGACAC | -0.127
121 | TATAGAGA | 0.0967
122 | CGCGACTC | -0.0291
123 | CCATTTCA | -0.0615
124 | AGCAGATG | -0.192
125 | CTCATGTA | 0.133

Row | Sequence | PBM E-score
126 | GCAACGAC | -0.0901
127 | AATCGAAA | 0.188
128 | AAAGCGGG | -0.177
129 | CAAGAGTA | 0.0971
130 | CCGACTCA | -0.104
131 | AGTTTGTA | 0.184
132 | CGATCGGA | -0.112
133 | GAGACCAC | -0.182
134 | AGGTTGAT | -0.00875
135 | ATACCAGC | -0.012
136 | CGATTACG | -0.00042
137 | ATATCGAC | 0.043
138 | CGTATTCA | 0.0755
139 | GACCTACC | -0.0451
140 | ATTTGAAG | -0.00835
141 | GAGGTCCC | -0.106
142 | ATATTACC | 0.227
143 | TACTAGTA | 0.377
144 | AATTATCG | 0.308
145 | TGCGCACA | -0.00097
146 | CGCGGGGC | -0.114
147 | GCTAGCAA | -0.211
148 | AGAAGAAA | 0.0907
149 | AATATAGC | 0.156
150 | GAGTTCGA | 0.0995

Row | Sequence | PBM E-score
151 | AATCGGGG | -0.125
152 | GCTCTCGA | -0.0693
153 | ACATAGGA | -0.0823
154 | ACTAGAGC | -0.135
155 | CAGCCGCC | -0.209
156 | CGACTTAG | 0.0431
157 | AACGGCGT | -0.00651
158 | AGTACGAG | 0.0203
159 | GCTAACTA | 0.226
160 | ACTCTTCG | -0.00261
161 | GCCCTAAA | -0.297
162 | GCCCCTTA | -0.306
163 | ACTAACAT | 0.238
164 | GAGTTTAC | 0.131
165 | ACTCCAGT | 0.175
166 | CTACTGTC | -0.00043
167 | ACCAAACG | -0.166
168 | TGCCCAAA | -0.185
169 | AAGGTGGG | -0.188
170 | AACCTAAC | 0.136
171 | GGCATTTA | -0.141
172 | CCAGATAA | 0.00728
